According to the supplement of paper PMC3334620:
The full ranking holds about 33,000 sequences; the median of “E-score (-0.5 to 0.5)” is about -0.036, and the highest 2% start at about 0.37. The list shows a part of the results.

molecular target: T1, Yer064c (UniProt P40041); test: PBM E-score (8-mer binding enrichment) (E-score (-0.5 to 0.5)); higher = stronger / more preferred TF binding; most listed sequences are background and not binding sites; settings: protein concentration: 200 nM; construct: GST-full length
T1 sequence: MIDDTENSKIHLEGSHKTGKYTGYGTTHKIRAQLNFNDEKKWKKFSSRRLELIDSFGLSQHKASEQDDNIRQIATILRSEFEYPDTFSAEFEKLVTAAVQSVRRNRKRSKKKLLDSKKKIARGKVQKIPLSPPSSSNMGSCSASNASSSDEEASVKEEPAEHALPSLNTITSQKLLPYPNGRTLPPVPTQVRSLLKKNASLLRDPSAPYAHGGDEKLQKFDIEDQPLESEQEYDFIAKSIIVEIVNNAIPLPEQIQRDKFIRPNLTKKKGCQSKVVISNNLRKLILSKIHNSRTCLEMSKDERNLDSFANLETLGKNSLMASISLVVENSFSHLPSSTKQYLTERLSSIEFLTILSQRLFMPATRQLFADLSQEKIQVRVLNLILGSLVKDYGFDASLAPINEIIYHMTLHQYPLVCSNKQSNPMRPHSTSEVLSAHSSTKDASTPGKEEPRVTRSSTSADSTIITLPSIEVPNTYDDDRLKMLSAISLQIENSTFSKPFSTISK
How it was run: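 Each ungapped eight-base word and its reverse complement, pooled, received an E-score from the Universal PBM Analysis Suite. Underlying scans, normalised with masliner, recorded fluorescent anti-GST bound to GST-tagged yeast transcription factors. These were applied at about 100-200 nM to universal all-10-mer Agilent arrays double-stranded by primer extension.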

Row | Sequence | PBM E-score
1 | CTGGGGTC | -0.0281
2 | GACATCTC | -0.139
3 | AAGAGGTA | -0.128
4 | TATGCGAA | -0.0756
5 | AACGCTTA | -0.183
6 | CGTTGTAG | 0.0306
7 | CTTAGGCA | -0.0418
8 | ACCGTCAC | -0.154
9 | CTTGGCTA | 0.0632
10 | CCCAGGAA | -0.148
11 | CCACCCTC | 0.0436
12 | ATTCGAAT | 0.216
13 | GAAGACGA | 0.0461
14 | ACGTTGCA | -0.0905
15 | ATGCCGAA | -0.0487
16 | ACTATTTG | 0.113
17 | AGTGGACG | -0.00071
18 | GACCCCGC | -0.341
19 | AACCTGTA | -0.0552
20 | GTAACTAC | -0.0408
21 | AAATCTCT | -0.078
22 | CGACAGAC | -0.11
23 | CGGAGGCA | -0.261
24 | ATTCCGAC | -0.0115
25 | CGAAGCCA | 0.0935

Row | Sequence | PBM E-score
26 | AGGTACAA | 0.0966
27 | AACCACAA | 0.0761
28 | GCGCCTTA | -0.26
29 | AGCAATTA | 0.0476
30 | AATGACTG | 0.441
31 | GGTGAACA | -0.164
32 | AACTGAGG | 0.0189
33 | ACGTTCCA | -0.289
34 | ACGCAATC | 0.162
35 | CCTGGACG | -0.185
36 | AACTAGGT | 0.0276
37 | CTATCAGC | 0.0186
38 | CCATTGAA | 0.077
39 | GGATCGTA | -0.118
40 | GTCGGCTA | 0.0779
41 | GAGGGATA | -0.246
42 | CTAACCCC | -0.237
43 | GGATCTAA | -0.00574
44 | ATTACGTG | 0.0436
45 | CGCTTACG | -0.013
46 | ACACTCCA | -0.0373
47 | AACCAGTC | 0.171
48 | AGGCGTGG | -0.202
49 | CCAAGCAG | -0.0695
50 | AACTAGCG | -0.119

Row | Sequence | PBM E-score
51 | AATCTGTG | -0.0718
52 | CTCATGAC | 0.381
53 | AGACGGCG | -0.126
54 | AGTCTTTA | 0.341
55 | AGTATCAT | 0.133
56 | TACGGGCA | -0.0961
57 | ATAGATAG | 0.0918
58 | ACGCACAT | -0.00395
59 | CCAAGACA | -0.0421
60 | CTCGCGAC | 0.0585
61 | AGCTGGAA | -0.105
62 | CTTGACTA | 0.435
63 | ACACGTCA | 0.00607
64 | ATTCCTCA | 0.104
65 | CCGAAACA | -0.0615
66 | ACGCATAA | -0.00233
67 | ACACATTA | 0.228
68 | GCCACTAC | -0.145
69 | AGCCCTGG | -0.285
70 | GGCCCTCA | -0.237
71 | GGCACGTA | -0.174
72 | AGTCGGAG | 0.245
73 | ATACGGGG | -0.128
74 | CTTTCGAC | -0.0335
75 | GCAACGGC | -0.175

Row | Sequence | PBM E-score
76 | AAACTGGC | -0.074
77 | ATCAGAAC | 0.127
78 | CCTTGCGA | -0.131
79 | AGGGGGTA | -0.235
80 | AGCTGGCA | -0.216
81 | ATTATACC | 0.106
82 | TGACCCAA | 0.222
83 | CTCTAGTC | 0.313
84 | ATATTGCA | -0.082
85 | TAGCCAAA | 0.0577
86 | AGTGCATG | -0.00556
87 | GCCTTCAA | -0.0385
88 | ATATCGCC | 0.0619
89 | CAACCGTC | -0.198
90 | ACTTTCAC | 0.161
91 | AACACACT | 0.0687
92 | CCTAGCGC | -0.0308
93 | ACAAAGCT | -0.0467
94 | AATAGTAG | -0.149
95 | CGCAATTA | 0.0407
96 | GTTTGATA | 0.173
97 | GTCATACA | 0.374
98 | AAAGTACG | 0.12
99 | AACACTTA | -0.187
100 | GCGAAAAC | -0.131

Row | Sequence | PBM E-score
101 | CATGGATA | 0.139
102 | AATAACGT | -0.0458
103 | ATAACAGG | -0.0906
104 | CGTTAACA | -0.118
105 | CGGGAGTC | 0.413
106 | GAGCTAGC | -0.0727
107 | AAGATGAG | 0.154
108 | CTCGCTAC | -0.0508
109 | GATAGTGA | 0.0967
110 | CCAAGGGG | -0.202
111 | AAACCATA | 0.132
112 | GAGCCATA | 0.366
113 | CCACGCGA | 0.054
114 | AAGAGCAC | -0.114
115 | CGTGTCGC | -0.0748
116 | ACAATTAA | 0.144
117 | CACCAACC | -0.0246
118 | ACAGTCAG | 0.378
119 | CAATCAGA | 0.208
120 | AGAAGCGA | 0.0498
121 | CACACTGG | -0.101
122 | CATCATTC | 0.0981
123 | TGTAGTAA | -0.0199
124 | AATTGAAA | 0.0954
125 | ATGTGAAG | -0.0882

Row | Sequence | PBM E-score
126 | GATAATCA | 0.384
127 | CACTGAGG | -0.227
128 | ATTCTGAC | 0.242
129 | GCTCTAAC | -0.0641
130 | CCAGAATC | 0.0913
131 | CTCGGCTC | 0.145
132 | CAGAAGTA | -0.00734
133 | GCAGCCAA | -0.0571
134 | CATGGGGC | -0.135
135 | ATGAGTGA | 0.283
136 | AGGTAAGC | -0.252
137 | TCAACCCA | 0.0176
138 | CCAGCCGG | -0.295
139 | TCAGTGGA | 0.0611
140 | ACAAACGA | 0.142
141 | TCAAAAAA | 0.16
142 | TGCACGAA | 0.144
143 | AGTGATAG | -0.175
144 | AAGTAACT | -0.0527
145 | ACTGTTAT | 0.0549
146 | ATCTGCAT | 0.105
147 | GCCTCACA | 0.0503
148 | CGAGTTGC | -0.095
149 | ATCGACCG | -0.233
150 | CGAAATCA | 0.309

Row | Sequence | PBM E-score
151 | CGAGAAGA | -0.12
152 | AAGGCGAT | -0.0384
153 | CTGGGCGA | -0.00955
154 | ATCGCGAA | 0.018
155 | GCCTTGAC | 0.121
156 | AAGTAACA | -0.0958
157 | AAAAAGGT | -0.0086
158 | ACTACGAG | 0.219
159 | CCTGCTCA | -0.254
160 | CCGCTGAA | -0.165
161 | AATCGCAT | 0.184
162 | ATTGAAGC | -0.121
163 | CCAACACA | 0.0809
164 | TATTTGAA | 0.0204
165 | AAGGTCTA | -0.0108
166 | CTTAGACA | 0.00308
167 | ACTCATAC | 0.393
168 | CTAGTAGC | 0.0434
169 | CCAGCGGC | -0.173
170 | GCCCAGAA | -0.213
171 | CCTTAGCG | 0.0566
172 | CGGTGACG | -0.147
173 | GCGCGCAC | -0.233
174 | CTCATCTC | 0.145
175 | ATAACTAT | -0.0464

Row | Sequence | PBM E-score
176 | TACTAATA | -0.1
177 | GGCATGAC | 0.192
178 | CGCCTCAA | -0.2
179 | AATGCGTG | 0.0168
180 | AATCCGGA | 0.0502
181 | CACTTTTA | 0.154
182 | CGTGTGTA | 0.137
183 | GTTAGACA | 0.238
184 | AACGCGAA | 0.0663
185 | GTCGAGTA | 0.125
186 | AGTGAGTA | 0.355
187 | ACGCCGCC | -0.215
188 | GGCTCTTA | -0.00753
189 | AACCTCAA | -0.0197
190 | CATATGCG | -0.0676
191 | CGTATTTC | -0.122
192 | GTCCGGTA | 0.0355
193 | ATTTACCG | -0.181
194 | ATGGGGTA | 0.0384
195 | TCGGAAGA | -0.0232
196 | ATGGATCC | -0.0679
197 | GATTCGAC | 0.218
198 | CGAGGACG | -0.0584
199 | GGGTTGTA | -0.0784
200 | GTACCAAA | -0.0721

Row | Sequence | PBM E-score
201 | TGCGCGAA | 0.0115
202 | TCCATCGA | 0.00298
203 | AAATCGCG | -0.00381
204 | GGTAGAGA | -0.109
205 | TCTACTAA | 0.072
206 | CAATACCA | -0.0843
207 | ACGGAGCA | -0.213
208 | ACTTTACT | 0.159
209 | CCTCCACC | -0.286
210 | CAACTGGC | -0.183
211 | ACGATCAA | 0.0214
212 | GAGATCGA | 0.014
213 | GCTGACCC | -0.0551
214 | GCGGCGAA | -0.17
215 | GGGCTTAA | -0.135
216 | ATTGTAGA | 0.174
217 | TAGTAGAA | -0.185
218 | CTGGGGAC | -0.0825
219 | GGGGTACC | -0.201
